In the supplement of paper PMC11369174, “Proteome-scale characterisation of motif-based interactome rewiring by disease mutations” (Molecular Systems Biology, 2024):
The list shows a part of the results. These are enrichments in a pooled selection; single values are uncertain.

B1: CLN6 1-16 mut Q9NWW5.R6T (peptide)
chain: MEATRTRQHLGATGGP
B2: EPAS1 530-545 mut Q99814.P534L (peptide)
chain: APYILMDGEDFQLSPI
B3: FLVCR2 333-348 wt (peptide)
chain: RMVIWHYPGEEVNAGR
B4: BRCA2 553-568 mut P51587.G561R (peptide)
chain: LAPNLIDNRSWPATTT
B5: RET 1051-1066 mut P07949.Y1062C (peptide)
chain: ALPSTWIENKLAGMSD
B6: ABCA4 1781-1796 mut P78363.P1788L (peptide)
chain: ASFLFDVLSTAYVALS
B7: ORC1 657-672 mut Q13415.R666W (peptide)
chain: DLPERIMMNWVSSRLG
B8: BRCA2 773-788 mut P51587.V783G (peptide)
chain: PTSKDVLSNLGMISRG
B9: BRCA2 549-564 mut P51587.G561R (peptide)
chain: KEDSLAPNLIDNRSWP
B10: BRCA2 3273-3288 mut P51587.L3279S (peptide)
chain: FLSRLPSPPPVSPIAT
B11: XPC 152-167 mut Q01831.R155G (peptide)
chain: AFSGSLLPVKPVEIEI
B12: ABCA4 1354-1369 mut P78363.A1357E (peptide)
chain: HVQELLVKRFQHTIRS
B13: BMPR1A 8-23 wt (peptide)
chain: IRLLGAYLFIISRVQG
B14: PLP1 2-17 mut P60201.P15L (peptide)
chain: GLLEAAARALVGALFA
B15: FLVCR2 331-346 wt (peptide)
chain: LNRMVIWHYPGEEVNA
B16: PLP1 1-16 mut P60201.P15L (peptide)
chain: MGLLEAAARALVGALF
B17: KCNC3 32-47 wt (peptide)
chain: PPPPLPPQQQQPAQPG
B18: NBN 189-204 mut O60934.Q189E (peptide)
chain: EPPQIESFYPPLDEPS
B19: PIAS1 93-108 mut O75925.S106L (peptide)
chain: TIPQLTYDGHPASLPL
B20: RYR1 4542-4557 wt (peptide)
chain: WGELEVQRVKFLNYLS
B21: RET 1051-1066 wt (peptide)
chain: ALPSTWIENKLYGMSD
B22: CREBBP 866-881 wt (peptide)
chain: MPSLQHTTPPGMTPPQ
B23: LMNA 44-59 mut P02545.L52V (peptide)
chain: VYIDRVRSVETENAGL
B24: FLVCR2 331-346 mut Q9UPI3.R333P (peptide)
chain: LNPMVIWHYPGEEVNA
B25: SCN1A 1422-1437 mut P35498.Q1427P (peptide)
chain: YLSLLPVATFKGWMDI
B26: MYOZ2 152-167 wt (peptide)
chain: WEQAISNDPELLEALY
B27: MYH9 1811-1826 wt (peptide)
chain: ALEAKIAQLEEQLDNE
B28: EPAS1 530-545 wt (peptide)
chain: APYIPMDGEDFQLSPI

target: WDR5_WD_1234567_P61964_21_334; test: mean normalised NGS count of phage-displayed peptide after selection on bait (% of reads); baits are purified protein domains named by gene / domain / UniProt id / residues; peptides come from disordered regions of human proteins; higher = stronger enrichment / binding; settings: replicate selections in which the peptide was seen: 2

| Binder | mean normalised NGS count |
| --- | --- |
| B1 | 0.126 |
| B6 | 3.38 |
| B13 | 0.0592 |
| B23 | 8.02 |
| B27 | 0.159 |

Target: T1, TERF1_TRF__P54274_58_268
T1 chain: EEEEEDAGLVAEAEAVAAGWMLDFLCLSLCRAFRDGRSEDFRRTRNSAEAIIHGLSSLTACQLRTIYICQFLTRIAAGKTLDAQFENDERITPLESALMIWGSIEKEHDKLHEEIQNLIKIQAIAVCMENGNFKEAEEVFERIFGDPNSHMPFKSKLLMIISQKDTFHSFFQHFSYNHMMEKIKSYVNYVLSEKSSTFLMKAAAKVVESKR
Test: as above
Settings: replicate selections in which the peptide was seen: 4

| Binder | mean normalised NGS count |
| --- | --- |
| B2 | 8.16 |
| B28 | 0.183 |

Target: T2, TLN1_PTB__Q9Y490_309_401
T2 chain: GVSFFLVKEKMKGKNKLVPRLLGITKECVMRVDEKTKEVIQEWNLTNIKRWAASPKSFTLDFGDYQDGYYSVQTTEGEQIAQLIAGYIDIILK
Test: as above
Settings: replicate selections in which the peptide was seen: 6

| Binder | mean normalised NGS count |
| --- | --- |
| B3 | 68.1 |
| B21 | 113 |

Target: T3, ZMYND11_coiled-coil-MYND__Q15326_480_602
T3 chain: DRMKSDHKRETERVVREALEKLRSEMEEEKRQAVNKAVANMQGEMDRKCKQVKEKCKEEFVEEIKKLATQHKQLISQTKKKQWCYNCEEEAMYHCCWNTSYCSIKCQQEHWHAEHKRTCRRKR
Test: as above
Settings: replicate selections in which the peptide was seen: 2

| Binder | mean normalised NGS count |
| --- | --- |
| B4 | 0.00407 |
| B9 | 0.0262 |
| B18 | 0.00951 |
| B22 | 0.0113 |

Target: T4, TLN2_PTB__Q9Y4G6_312_417
T4 chain: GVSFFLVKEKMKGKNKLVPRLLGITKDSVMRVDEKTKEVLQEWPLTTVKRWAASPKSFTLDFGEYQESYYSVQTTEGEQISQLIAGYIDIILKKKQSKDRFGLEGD
Test: as above
Settings: replicate selections in which the peptide was seen: 5

| Binder | mean normalised NGS count |
| --- | --- |
| B5 | 0.0291 |

Target: T2, TLN1_PTB__Q9Y490_309_401
Test: as above
Settings: replicate selections in which the peptide was seen: 5

| Binder | mean normalised NGS count |
| --- | --- |
| B7 | 1.51 |

target: WDR5_WD_1234567_P61964_21_334; test: as above; settings: replicate selections in which the peptide was seen: 3

| Binder | mean normalised NGS count |
| --- | --- |
| B8 | 0.871 |
| B10 | 0.083 |

Target: T1, TERF1_TRF__P54274_58_268
Test: as above
Settings: replicate selections in which the peptide was seen: 2

| Binder | mean normalised NGS count |
| --- | --- |
| B11 | 0.00308 |

Same assay, conditions: replicate selections in which the peptide was seen: 6

| Binder | mean normalised NGS count |
| --- | --- |
| B12 | 22.6 |

Target: T5, VCL_Vinc__P18206_1_258
T5 chain: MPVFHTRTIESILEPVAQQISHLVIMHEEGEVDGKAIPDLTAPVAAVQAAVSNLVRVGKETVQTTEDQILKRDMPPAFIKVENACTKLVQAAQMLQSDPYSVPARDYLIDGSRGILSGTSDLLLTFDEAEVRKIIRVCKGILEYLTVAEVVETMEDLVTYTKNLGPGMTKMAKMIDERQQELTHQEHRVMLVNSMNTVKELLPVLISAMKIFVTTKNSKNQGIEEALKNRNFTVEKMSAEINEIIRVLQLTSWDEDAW
Test: as above
Settings: replicate selections in which the peptide was seen: 2

| Binder | mean normalised NGS count |
| --- | --- |
| B14 | 16.4 |
| B16 | 25.5 |

Target: T4, TLN2_PTB__Q9Y4G6_312_417
Test: as above
Settings: replicate selections in which the peptide was seen: 2

| Binder | mean normalised NGS count |
| --- | --- |
| B15 | 0.103 |

target: Src_SH3__P12931_87_144; test: as above; settings: replicate selections in which the peptide was seen: 5

| Binder | mean normalised NGS count |
| --- | --- |
| B17 | 0.922 |

Target: T3, ZMYND11_coiled-coil-MYND__Q15326_480_602
Test: as above
Settings: replicate selections in which the peptide was seen: 3

| Binder | mean normalised NGS count |
| --- | --- |
| B19 | 0.025 |

Target: T1, TERF1_TRF__P54274_58_268
Test: as above
Settings: replicate selections in which the peptide was seen: 5

| Binder | mean normalised NGS count |
| --- | --- |
| B20 | 20.4 |

Target: T4, TLN2_PTB__Q9Y4G6_312_417
Test: as above
Settings: replicate selections in which the peptide was seen: 6

| Binder | mean normalised NGS count |
| --- | --- |
| B21 | 77 |

Target: T2, TLN1_PTB__Q9Y490_309_401
Test: as above
Settings: replicate selections in which the peptide was seen: 4

| Binder | mean normalised NGS count |
| --- | --- |
| B24 | 5.17 |

Target: T4, TLN2_PTB__Q9Y4G6_312_417
Test: as above
Settings: replicate selections in which the peptide was seen: 4

| Binder | mean normalised NGS count |
| --- | --- |
| B24 | 0.767 |

Target: T1, TERF1_TRF__P54274_58_268
Test: as above
Settings: replicate selections in which the peptide was seen: 3

| Binder | mean normalised NGS count |
| --- | --- |
| B25 | 0.263 |

Target: T5, VCL_Vinc__P18206_1_258
Test: as above
Settings: replicate selections in which the peptide was seen: 3

| Binder | mean normalised NGS count |
| --- | --- |
| B26 | 0.374 |
